Measurements as given in PubChem BioAssay AID1865 (National Center for Advancing Translational Sciences (NCATS), 2009).
Among all 280,000 compounds or so, about 540 (0.19%) were called active. The inconclusive results got no clear call from the source; some entries with a clear call stand among them for comparison. The call rests on the fitted dose curve; in most records, active means well fitted activation curve with a large enough effect; inconclusive means small, poorly fitted or top-dose-only effect; inactive means flat fitted curve, though single readings scatter. Potencies beside an inconclusive call are fits to weak or partial responses and may not hold up.
Potency means the concentration at half of the fitted maximal effect; tags describe the fitted curve by direction and shape.

Experiment: Quantitative High-Throughput Screen for Regulators of Epigenetic Control; further: nearly all actives have a fitted effect of over 60% in size; on GFP activation: % of control where 0% means no effect
Conditions: murine LDR cells, GFP reporter derepression, 30 h; GFP activation: at 53.9 µM (top of the series)
How it was run: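 Murine LDR cells bearing a silenced CMV-driven GFP reporter were exposed to compound for 30 h at 37 C. After PBS washes, GFP-positive cells (20-120 um objects) counted by laser-scanning microplate cytometry.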
With `COc1ccc2cc(/C=N/NC(=O)c3ccc(CN(c4ccc(C)c(C)c4)S(C)(=O)=O)cc3)c(Cl)nc2c1` the Potency was active: 22.4 µM.
In the case of `Nc1nc(-c2ccc3c(c2)CCC(=O)N3)cs1`, the Potency is reported as inconclusive: 0.004 µM [activator, full curve, poor fit].
With `COCc1cc(CN2CCCC2)c(O)c2ncccc12` the Potency was “inactive”.
With `CC(C)(C)C(=O)/C=c1\s/c(=C\c2ccc(-c3ccc([N+](=O)[O-])cc3)o2)c(=O)n1CC(=O)NC(N)=O` the Potency was inconclusive: 31.6 µM [activator, single point].
For `CCCCC/C=C\C/C=C\C/C=C\C/C=C\CCCC(=O)C(F)(F)F`, the Potency was inconclusive: 35.5 µM [activator, single point].
In the case of `COCCn1c(C)cc(/C=C2/SC(=O)N(C(C)C(=O)OC)C2=O)c1C` (stereo not drawn), the Potency is reported as “inactive”.
In the case of `Cc1ccc(N2C(=O)[C@@H]3C(c4cccnc4)=NO[C@@H]3C2=O)cc1`, the Potency is reported as “inactive”.
For `CCOc1ccc(N(C)S(=O)(=O)c2ccc3c(c2)C(C)(C)C(=O)N3C)cc1`, the Potency was “inactive”.
For `O=c1[nH]c(Nc2ccc3c(c2)OCCO3)nnc1Cc1ccccc1`, the Potency was inconclusive: 35.5 µM [activator, single point].
With `CCN(c1ccccc1)S(=O)(=O)c1nnc(NC(=O)COc2ccc(OC)cc2)s1` the Potency was inconclusive: 22.4 µM [activator, single point].
For `COC(=O)C(C(=O)OC)[C@@H](NC(=O)OCc1ccccc1)c1ccccc1`, the Potency was “inactive”.
In the case of `CCOC(=O)N1CCC(Nc2c(-c3ccc(C)c(C)c3)c(=O)c2=O)CC1`, the Potency is reported as “inactive”.
For `Cc1nnc(SCc2cc(=O)n3c(C)cccc3n2)s1`, the Potency was “inactive”.
With `CCOc1ccc(CC(=O)Nc2ccc3nc(N4CCCCC4)cc(C)c3c2)cc1OCC` the Potency was inconclusive: 31.6 µM [activator, single point].
In the case of `CCc1nnc(NC(=O)CSc2nc3c([nH]c4ccccc43)c(=O)n2-c2cc(C)cc(C)c2)s1`, the Potency is reported as inconclusive: 22.4 µM [activator, single point].
For `CN(C)C(=O)CSc1nnc(Cc2ccccc2)n1Cc1ccco1`, the Potency was “inactive”.
For `COc1cc(C(=O)O/N=C2\C=CC(=O)C=C2C)cc(OC)c1OC`, the Potency was inconclusive: 8.91 µM [activator, single point].
For `CCOc1ccc(CC(=O)Nc2c(C(=O)c3ccc(F)cc3)oc3ccccc23)cc1OCC`, the Potency was inconclusive: 5.62 µM [activator, single point].
In the case of `CCOCCCNC(=O)/C(C#N)=C/c1ccc(-c2ccc(S(=O)(=O)N3CCOCC3)cc2)o1`, the Potency is reported as “inactive”.
With `O=C(CSc1nc(-c2cccs2)cc(C(F)(F)F)n1)Nc1cc(OCC(F)(F)F)cc([N+](=O)[O-])c1` the Potency was inconclusive: 35.5 µM [activator, single point].
With `CN1CCN(S(=O)(=O)c2ccc(NC(=O)COc3ccccc3Cl)cc2)CC1` the Potency was “inactive”.
For `COc1ccc(NC(=O)Cn2c(CCC(=O)O)ccc2-c2ccccc2)cc1Cl`, the Potency was inconclusive: 31.6 µM [activator, single point].
With `CC1(C)Cc2c(c(N3CCOCC3)nc3sc(C(N)=O)c(N)c23)CO1` the Potency was “inactive”.
For `CCOc1ccc(C(=O)/C=C/c2cc(OC)c(OC)c(OC)c2)cc1`, the Potency was inconclusive: 35.5 µM [activator, single point].
With `CCC(C)(C)NC(=O)CCCSc1nc2ccccc2s1` the Potency was “inactive”.
For `COc1cc2c(cc1OC)CN(C(=O)c1ccccc1C(=O)O)CC2`, the Potency was inconclusive: 3.98 µM [activator, single point].
For `CCn1nc(C)cc1C(=O)Sc1cccc(Br)c1`, the Potency was inconclusive: 35.5 µM [activator, single point].
For `COc1cccc(/C=N/n2c(-c3n[nH]c4c3CCC4)n[nH]c2=S)c1O`, the Potency was “inactive”.
For `Cn1c(=O)c2c(nc(SCC(=O)Nc3ccc(OC(F)(F)F)cc3)n2Cc2cccc(C(F)(F)F)c2)n(C)c1=O`, the Potency was inconclusive: 35.5 µM [activator, single point].
For `CCN1c2ccccc2-c2nc3ccccc3n2C1c1cccnc1` (stereo not drawn), the Potency was “inactive”.
In the case of `Cc1cc(NC(=O)N2CC=C(c3c[nH]c4ccccc34)CC2)ccc1Br`, the Potency is reported as inconclusive: 25.1 µM [activator, single point].
In the case of `NC(=O)/C=C/C(=O)Nc1ccc(Cl)cc1`, the Potency is reported as inconclusive: 14.1 µM [activator, single point].
For `C[C@@H]1Cc2c(O)c(O)cc(O)c2C(=O)O1`, the Potency was “inactive”.
In the case of `CNS(=O)(=O)c1ccc(NC(=O)c2nc3nc(C)cc(C(F)F)n3n2)cc1`, the Potency is reported as inconclusive: 31.6 µM [activator, single point].
In the case of `c1ccc(-c2nc(-c3cccs3)c(NC3CCCCC3)o2)cc1`, the Potency is reported as inconclusive: 22.4 µM [activator, single point].
For `COCCNC(=S)N/N=C(\C)c1ccccc1F`, the Potency was inconclusive: 20 µM [activator, single point].
In the case of `COc1ccccc1CNC(=O)c1cc(S(=O)(=O)N2CCCCCC2)cn1C`, the Potency is reported as “inactive”.
In the case of `COc1ccccc1NC(=O)c1sc2nc(C)c(C(=O)Nc3ccc(Cl)cc3)c(-c3ccc(Br)cc3)c2c1N`, the Potency is reported as inconclusive: 15.8 µM [activator, single point].
For `COc1cccc(/C=N/Nc2nc3ccccc3[nH]2)c1O`, the Potency was inconclusive: 14.1 µM [activator, single point].
For `CCc1ccc2oc(C(=O)Nc3nc(-c4ccc(F)cc4)ns3)c(C)c2c1`, the Potency was inconclusive: 14.1 µM [activator, single point].
With `CC(=O)NCc1ccc(C(=O)CCl)s1` the Potency was inconclusive: 28.2 µM [activator, single point].
With `O=c1[nH]c2ccccc2n2c(-c3ccccc3)nnc12` the Potency was inconclusive: 15.8 µM [activator, single point].
For `CCOc1ccc(CNC(=O)CCS(=O)(=O)c2cc3c4c(c2)CCN4C(=O)CC3)cc1`, the Potency was “inactive”.
With `CCC(=O)N1CCc2cc(S(=O)(=O)NCCC(=O)NC(C)c3ccccc3)ccc21` (stereo not drawn) the Potency was “inactive”.
With `Oc1c(Br)cc(Br)cc1/C=N/NC(=S)N[C@H]1CC2C=CC1C2` (stereo partly drawn) the Potency was inconclusive: 35.5 µM [activator, single point].
In the case of `OCc1cn(-c2ccccc2)nc1-c1cc2ccccc2o1`, the Potency is reported as “inactive”.
With `O=C(Cc1cccs1)NCc1ccco1` the Potency was “inactive”.
For `N#CCCn1cc(/C=N/NC(N)=S)c(-c2ccc(-c3ccccc3)cc2)n1`, the Potency was inconclusive: 31.6 µM [activator, single point].
For `CCOC(=O)c1ccc(NC(=O)Nc2cccc(OCc3cc(=O)n4ccc(C)cc4n3)c2)cc1`, the Potency was inconclusive: 25.1 µM [activator, single point].
In the case of `O=C1NC(=S)SC1=C1CCCCCC1`, the Potency is reported as “inactive”.
With `CCCSc1ncc(Cl)c(C(=O)Nc2ccc(OC)cc2OC)n1` the Potency was inconclusive: 31.6 µM [activator, single point].
With `COc1ccc(NC(=O)CSc2nc3c([nH]c4ccccc43)c(=O)n2-c2ccccc2)c(OC)c1` the Potency was inconclusive: 15.8 µM [activator, single point].
With `OC1CCN(C(=S)Nc2ccc(Nc3ccccc3)cc2)CC1` the GFP activation was inactive: -0.587% [at 10.1 µM].
In the case of `CN(C)c1ccc(/C=c2/sc3n(c2=O)NC2(c4ccccc4)N(C)C(=O)N(C)C2(c2ccccc2)N=3)cc1` (stereo not drawn), the Potency is reported as inconclusive: 22.4 µM [activator, single point].
For `COc1cccc2c1ncc1c(-c3ccc(C)cc3)nn(-c3cccc([N+](=O)[O-])c3)c12`, the Potency was inconclusive: 35.5 µM [activator, single point].
For `COc1ccc(NC(=O)N(CCC(C)C)C(C)c2cccs2)c(OC)c1` (stereo not drawn), the Potency was “inactive”.
For `N[C@@H](CCS(=O)O)C(=O)O`, the Potency was “inactive”.
In the case of `COc1ccc(-n2nc([N+](=O)[O-])c(=NCc3cccnc3)n2O)cc1`, the Potency is reported as inconclusive: 25.1 µM [activator, single point].
With `CC(=O)Nc1cccc(C(=O)/C=C/c2ccc(C)cc2)c1` the Potency was inconclusive: 31.6 µM [activator, single point].
In the case of `CCc1ccc(NC(=O)Cn2c(=O)n(CCC(=O)N3CCc4ccccc4C3)c(=O)c3ccccc32)cc1`, the Potency is reported as “inactive”.
For `Cc1ccc(S(=O)(=O)Nc2ccccc2/C=N/c2nc3ccccc3n2C)cc1`, the Potency was “inactive”.
In the case of `O=S(=O)(NCC(c1cccs1)S(=O)(=O)c1ccccc1)c1ccc(F)cc1` (stereo not drawn), the Potency is reported as inconclusive: 35.5 µM [activator, single point].
With `COc1ccc(CCn2c(=O)c3cccnc3n(CC(=O)Nc3ccc(C)c(F)c3)c2=O)cc1OC` the Potency was “inactive”.
For `COc1ccc(CCNC(=O)c2ccc(Nc3nc4ccccc4n4nnnc34)cc2)cc1OC`, the Potency was inconclusive: 20 µM [activator, partial curve].
For `COCCNC(=S)N/N=C(\C)c1cc2ccccc2o1`, the Potency was inconclusive: 31.6 µM [activator, single point].
With `CNC(=S)NNC(=O)c1cccc(C(F)(F)F)c1` the Potency was “inactive”.
For `Cc1cccc(NC(=O)CSc2nc(-c3cccs3)cc(C(F)(F)F)c2C#N)c1C`, the Potency was inconclusive: 20 µM [activator, single point].
For `CC(=O)Nc1cc(-c2nc3cc(Cl)ccc3o2)ccc1C`, the Potency was inconclusive: 35.5 µM [activator, single point].
With `CC/C(=N\Nc1ccc([N+](=O)[O-])cc1)c1ccccc1` the Potency was “inactive”.
With `CCn1c(SCc2ccccc2C)nc(=O)c2c(C(=O)OC)cc(C3CC3)nc21` the Potency was “inactive”.
With `O=C(Nc1ccccc1-c1nnc(SCc2ccccc2)o1)c1ccccc1` the Potency was “inactive”.
For `COc1cccc(C2c3c(oc4cc(C)cc(C)c4c3=O)C(=O)N2CCc2ccc(OC)c(OC)c2)c1` (stereo not drawn), the Potency was “inactive”.
With `CCOC(=O)C1CCC(CN(Cc2ccc(OC)cc2)S(=O)(=O)c2ccc(F)c(C(=O)Nc3ccc(C)c(C)c3)c2)CC1` (stereo not drawn) the Potency was “inactive”.
